In publication PMC9911399, “Two distinct binding modes provide the RNA-binding protein RbFox with extraordinary sequence specificity” one finds binding signal data, which are given here for 20 molecules.

Substitutions are numbered along the chain they refer to; changes in the protein carry UniProt numbers. This is one part of the list.

Sequences and labels used below:
B1: AAGUCAU (DNA:RNA)
RNA: GGGAGACCGGAAUUCAGAUUGUCCAAGUCAUUUAAAUCCCGUCGUAGCCACCA
DNA 1: CAATCTGAATTCCGGTCTCCC
DNA 2: TGGTGGCTACGACGGGATT
B2: UGACGUC (DNA:RNA)
RNA: GGGAGACCGGAAUUCAGAUUGUCCUGACGUCUUAAAUCCCGUCGUAGCCACCA
DNA 1: CAATCTGAATTCCGGTCTCCC
DNA 2: TGGTGGCTACGACGGGATT
B3: UUCGAUU (DNA:RNA)
RNA: B2 RNA with G26U, A27C, C28G, G29A, C31U
DNA 1: CAATCTGAATTCCGGTCTCCC
DNA 2: TGGTGGCTACGACGGGATT
B4: AGGGCGG (DNA:RNA)
RNA: B1 RNA with A26G, U28G, A30G, U31G
DNA 1: CAATCTGAATTCCGGTCTCCC
DNA 2: TGGTGGCTACGACGGGATT
B5: AAUAAUA (DNA:RNA)
RNA: B1 RNA with G27U, U28A, C29A, A30U, U31A
DNA 1: CAATCTGAATTCCGGTCTCCC
DNA 2: TGGTGGCTACGACGGGATT
B6: AGAAUAU (DNA:RNA)
RNA: B1 RNA with A26G, G27A, U28A, C29U
DNA 1: CAATCTGAATTCCGGTCTCCC
DNA 2: TGGTGGCTACGACGGGATT
B7: GGAGCUG (DNA:RNA)
RNA: B2 RNA with U25G, C28G, G29C, C31G
DNA 1: CAATCTGAATTCCGGTCTCCC
DNA 2: TGGTGGCTACGACGGGATT
B8: ACGGUAA (DNA:RNA)
RNA: B1 RNA with A26C, U28G, C29U, U31A
DNA 1: CAATCTGAATTCCGGTCTCCC
DNA 2: TGGTGGCTACGACGGGATT
B9: AGAUUUC (DNA:RNA)
RNA: B2 RNA with U25A, C28U, G29U
DNA 1: CAATCTGAATTCCGGTCTCCC
DNA 2: TGGTGGCTACGACGGGATT
B10: CUGAAAU (DNA:RNA)
RNA: B1 RNA with A25C, A26U, U28A, C29A
DNA 1: CAATCTGAATTCCGGTCTCCC
DNA 2: TGGTGGCTACGACGGGATT
B11: GGUAACC (DNA:RNA)
RNA: B2 RNA with U25G, A27U, C28A, G29A, U30C
DNA 1: CAATCTGAATTCCGGTCTCCC
DNA 2: TGGTGGCTACGACGGGATT
B12: UUUUAAA (DNA:RNA)
RNA: B1 RNA with A25U, A26U, G27U, C29A, U31A
DNA 1: CAATCTGAATTCCGGTCTCCC
DNA 2: TGGTGGCTACGACGGGATT
B13: AAGCUUC (DNA:RNA)
RNA: B1 RNA with U28C, C29U, A30U, U31C
DNA 1: CAATCTGAATTCCGGTCTCCC
DNA 2: TGGTGGCTACGACGGGATT
B14: GUACAUA (DNA:RNA)
RNA: B2 RNA with U25G, G26U, G29A, C31A
DNA 1: CAATCTGAATTCCGGTCTCCC
DNA 2: TGGTGGCTACGACGGGATT
B15: AGUCGUA (DNA:RNA)
RNA: B2 RNA with U25A, A27U, C31A
DNA 1: CAATCTGAATTCCGGTCTCCC
DNA 2: TGGTGGCTACGACGGGATT
B16: GCACUCA (DNA:RNA)
RNA: B2 RNA with U25G, G26C, G29U, U30C, C31A
DNA 1: CAATCTGAATTCCGGTCTCCC
DNA 2: TGGTGGCTACGACGGGATT
B17: ACCCACG (DNA:RNA)
RNA: B1 RNA with A26C, G27C, U28C, C29A, A30C, U31G
DNA 1: CAATCTGAATTCCGGTCTCCC
DNA 2: TGGTGGCTACGACGGGATT
B18: GUUAGGA (DNA:RNA)
RNA: B2 RNA with U25G, G26U, A27U, C28A, U30G, C31A
DNA 1: CAATCTGAATTCCGGTCTCCC
DNA 2: TGGTGGCTACGACGGGATT
B19: AUGCCGU (DNA:RNA)
RNA: B1 RNA with A26U, U28C, A30G
DNA 1: CAATCTGAATTCCGGTCTCCC
DNA 2: TGGTGGCTACGACGGGATT
B20: UGCUUGA (DNA:RNA)
RNA: B2 RNA with A27C, C28U, G29U, U30G, C31A
DNA 1: CAATCTGAATTCCGGTCTCCC
DNA 2: TGGTGGCTACGACGGGATT

The target of the assay is T1, RBFOX1 RRM RbFoxmut (Fox-RRM*) (Homo sapiens, UniProt Q9NWB1 109-208, R118D;E147R;N151S;E152T).
T1 sequence: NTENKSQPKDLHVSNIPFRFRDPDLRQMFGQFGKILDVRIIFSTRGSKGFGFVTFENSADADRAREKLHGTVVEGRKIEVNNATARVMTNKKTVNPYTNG
As to the kind of experiment: EMSA; HiTS-Eq, 1 nM pool, 10 min; buffer printed only for the single-RNA assays: 10 mM Tris pH 7.5, 150 mM NaCl, 3.4 mM EDTA, 0.001% NP-40, 30 C. To be noted: tags: His6 N-terminal (pET28a); label: 5' 32P. In outline:
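These values rest on relative association constants, computed from read-count changes of each RNA species versus the control reaction and normalised to the cognate motif. Reads came from free RNA recovered by 8% native PAGE after purified RbFox RRM (wild type or mutant) at increasing concentrations was equilibrated for 10 min in 50 µL with 1 nM of a 5′-radiolabelled pool with 7 randomized nucleotides and DNA-annealed flanks.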
A general note: In EMSA bound probe runs differently from free probe, usually more slowly.
As to B1, the binding signal was 0.0856 KA relative to UGCAUGU.
The same measure for B2: 0.0923 KA relative to UGCAUGU.
Next, B3: 0.0793 KA relative to UGCAUGU; B4: 0.117 KA relative to UGCAUGU.
Next, B5: 0.0507 KA relative to UGCAUGU.
Take B6: the binding signal was 0.119 KA relative to UGCAUGU.
The same measure for B7: 0.13 KA relative to UGCAUGU; for B8: 0.115 KA relative to UGCAUGU.
As for B9, the binding signal is 0.0772 KA relative to UGCAUGU.
Next, B10: 0.0434 KA relative to UGCAUGU; B11: 0.0646 KA relative to UGCAUGU.
The same measure for B12: 0.117 KA relative to UGCAUGU; for B13: 0.0663 KA relative to UGCAUGU; for B14: 0.112 KA relative to UGCAUGU.
Next, B15: 0.0993 KA relative to UGCAUGU.
In the case of B16, the binding signal is 0.0691 KA relative to UGCAUGU.
The same measure for B17: 0.124 KA relative to UGCAUGU; for B18: 0.0568 KA relative to UGCAUGU.
The same measure for B19: 0.131 KA relative to UGCAUGU; for B20: 0.308 KA relative to UGCAUGU.
